Among all 45,000 compounds or so, about 65 (0.1%) were called active. Calls follow the shape of the dose curve; as a rule, active = well fitted activation curve with a large enough effect; inconclusive = small, poorly fitted or top-dose-only effect; inactive = no such curve, though single readings can be large or run the other way. The list shows a part of the results.
target: Galactocerebrosidase (Homo sapiens) (UniProt P54803); assay: A Novel Cell-Based Assay to Identify Small Molecules for B -Galactocerebrosidase; settings: 145M-Twi-hGALC-G270D cells (Twitcher mouse brain line with human GALC G270D), HMU-beta-Gal fluorescence, 48 h; series mostly up to 57.5 µM; activation: at the top concentration; also: 0% is about no effect; nearly all actives have a fitted effect of over 65% in size
Method in brief: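 Brain-derived Twitcher mouse 145M-Twi cells stably expressing human GALC-G270D or wild-type GALC, treated live, then residual GALC activity read by fluorescence of HMU-b-Gal substrate (0.1 mM final) in citrate-phosphate buffer pH 5.2 with sodium taurocholate. Signal increase indicates enhancement.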

Chain of UniProt P54803 (P54803 whole entry, looked up): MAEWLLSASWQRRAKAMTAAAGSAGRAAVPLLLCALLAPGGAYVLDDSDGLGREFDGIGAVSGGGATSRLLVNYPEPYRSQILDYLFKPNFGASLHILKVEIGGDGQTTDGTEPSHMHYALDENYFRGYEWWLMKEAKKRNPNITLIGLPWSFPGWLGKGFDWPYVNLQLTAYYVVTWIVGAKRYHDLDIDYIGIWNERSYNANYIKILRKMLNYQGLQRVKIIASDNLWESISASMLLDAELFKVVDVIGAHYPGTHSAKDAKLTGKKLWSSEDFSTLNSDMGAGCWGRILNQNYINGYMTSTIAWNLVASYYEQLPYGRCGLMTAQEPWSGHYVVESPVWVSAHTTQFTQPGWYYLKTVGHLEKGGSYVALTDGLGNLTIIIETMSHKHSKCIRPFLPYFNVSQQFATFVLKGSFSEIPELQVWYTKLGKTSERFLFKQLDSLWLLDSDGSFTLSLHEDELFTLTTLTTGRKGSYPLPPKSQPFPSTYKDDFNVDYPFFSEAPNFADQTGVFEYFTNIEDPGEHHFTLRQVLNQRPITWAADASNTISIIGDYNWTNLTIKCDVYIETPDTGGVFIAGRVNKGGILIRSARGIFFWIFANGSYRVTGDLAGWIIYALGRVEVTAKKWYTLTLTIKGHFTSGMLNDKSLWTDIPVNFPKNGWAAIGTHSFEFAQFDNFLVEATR

activation, inactive:
CCN(CC)S(=O)(=O)c1nnc(NC(=O)c2ccc(C)cc2)s1 -15.4%
CC(=O)N1CCc2cc(S(=O)(=O)NC(Cc3ccccc3)C(=O)Nc3cc(C)cc(C)c3)ccc21 (centres undefined) -11.4%
CC1CCCCN1CCCNC(=O)Cn1ncc2c3ccccc3n(Cc3ccccc3)c2c1=O (centres undefined) -15.1%
COc1ccccc1N1CCN(Cc2nc(-c3cc(OC)c(OC)c(OC)c3)no2)CC1 10.6%
COc1ccccc1C1C(C(=O)Nc2ccccc2)=C(C)Nc2nc(-c3ccccc3)nn21 (centres undefined) -19.2%
O=C(Cn1ncc2c3ccccc3n(Cc3ccccc3)c2c1=O)NCCCN1CCCCC1 -10.5%
Cc1ccc(Cl)cc1N1CCN(C(=O)CCc2nnc3n(C)c(=O)c4ccccc4n23)CC1 4.56%
Cc1ccc(NC(=O)CSc2nc3n[nH]c(C)c3c(=N)n2-c2ccccc2C)cc1C -14.5%
CCN(Cc1ccccc1)C(=O)c1cn(-c2cccc(OC)c2)c(=O)c2ccccc12 -9.61%
COc1ccc(CNC(=O)C(CC(C)C)NS(=O)(=O)c2ccc3c(c2)CCN3C(C)=O)cc1 (centres undefined) -14.3%
COc1ccc(-c2cc(C(=O)Oc3ccc(C#N)cc3)no2)cc1 -12.7%
O=S1(=O)c2ccccc2N(Cc2ccc(F)cc2)c2ccccc21 -14.1%
CCCc1cc(=O)[nH]c(SCc2nc(-c3ccccc3)no2)n1 -5.07%
O=C(NCCOCCn1c(=O)oc2ccccc21)Nc1ccc(F)cc1F -14.8%
COc1ccc(Nc2nnc(-n3nc(C)cc3C)c3ccccc23)cc1 -9.89%
CNC(=O)c1c(I)c(NC(=O)CCCCC(=O)Nc2c(I)c(C(=O)O)c(I)c(C(=O)NC)c2I)c(I)c(C(=O)O)c1I -3.02%
CCOc1ccc(NC(=O)CN(c2ccc(C)cc2)S(=O)(=O)c2cccs2)cc1 -1.93%
COc1ccc(CNC(=O)c2cc3c(=O)n(Cc4ccc(OC)cc4)ccc3nc2C)cc1 -9.36%
COc1cc(Br)cc2cc(S(=O)(=O)c3ccccc3)c(=O)oc12 -14.1%
Cc1cccc(NC(=O)CSc2nc3ccc(NC(=O)CCc4ccccc4)cc3s2)c1 -9.56%
Cc1ccc(-c2nc(CS(=O)(=O)CC(=O)N3CCN(c4ccccc4)CC3)c(C)o2)cc1 -22.3%
COc1cccc(NCc2nnc3n2CCCCC3)c1 -14.4%
Cc1ccc(-c2noc(-c3cccnc3N(C)Cc3ccc(Cl)cc3)n2)cc1 -14.4%
CCCSCCCNC(=O)c1sc2nc(C)cc(C)c2c1-n1cccc1 -23.4%
CCOc1ccc(CNCCSc2nnnn2C)cc1 -12.9%
CCc1ccc(C(=O)c2cn(CC(=O)Nc3cc(OC)cc(OC)c3)c3ccc(CC)cc3c2=O)cc1 -14.5%
CCc1cccc(C)c1Nc1c(-c2ccc(N(C)C)cc2)nc2cnccn12 -10.8%
COc1cccc(CNC(=O)c2ccc3nc(CCc4ccccc4)oc3c2)c1OC -16.9%
Cc1ccc(-n2nc(C)c3c(C)c(CCC(=O)NCc4ccc(Cl)cc4)c(C)nc32)cc1 -17.9%
COc1ccc(-c2nc3ccccc3s2)cc1NC(=O)c1cccc(F)c1 -20.6%
CCCOc1ccc(CN2C(=O)C(=O)c3cccc(C)c32)cc1 -13.5%
Cc1ccc(NC(=O)c2ccc(N(Cc3ccccc3)S(C)(=O)=O)cc2)cc1 4.26%
CC(C)c1ccc(C2=NC(c3ccncc3)=Nc3ccc(F)cc3N2)cc1 -17.2%
O=C(Nc1nc2c(s1)CCCC2)c1ccccc1F -19%
CCC1CCc2c(sc(NC(=O)C3c4ccccc4Oc4ccccc43)c2C(=O)OC)C1 (centres undefined) -1.04%
CCOC(=O)N1CCC(NC(=O)c2ccc3c(c2)N(Cc2ccc(Cl)cc2)C(=O)c2ccccc2S3(=O)=O)CC1 -1.6%
Cc1ccc(C(=O)c2oc3ccccc3c2NC(=O)C(C)Oc2ccccc2Cl)cc1 (centres undefined) -0.713%
CCCn1cc(S(=O)(=O)c2ccc(CC)cc2)c(=O)c2cc(F)c(N3CCN(C)CC3)cc21 -17.8%
CCOc1ccc(Cn2c(CNS(=O)(=O)c3ccc(CC)cc3)nc3cccnc32)cc1 -2.57%
CCOC(=O)c1c(S(=O)(=O)N2CCN(c3cccc(C(F)(F)F)c3)CC2)c(C)n(C)c1C -9.59%
CNC(=O)c1ccc2nc(Cc3ccccc3)oc2c1 -12%
COc1ccc(OC)c(CCNC(=O)c2nn(C)c3c2CSc2ccccc2-3)c1 -7.09%
O=C(Nc1ccc(Br)cc1F)c1cc2nc(-c3ccco3)cc(C(F)(F)Cl)n2n1 -0.456%
Cc1cc(Br)ccc1NC(=O)CCNS(=O)(=O)c1cccc2nonc12 -12.7%
COc1ccc(NC(=O)c2c(NCc3cccs3)sc3c2CCCCC3)c(OC)c1 -13.6%
CCOc1ccc(OCC)c(Nc2nc3ccc(C(=O)c4ccccc4)cc3n3cnnc23)c1 -16.6%
COc1ccc2c(c1)CC(C(=O)Nc1ccc(OC)cc1OC)CO2 (centres undefined) -9.07%
O=S(=O)(c1ccc(OC(F)(F)F)cc1)N1CCC(c2nc3ccccc3s2)CC1 -2.13%
CCCOc1ccc2nc(NC(=O)OC)[nH]c2c1 -7.49%

— PubChem BioAssay AID1159614 (National Center for Advancing Translational Sciences (NCATS), 2016)
